What is called % Inhibition is the relative decrease from the control value, in per cent.

Out of some 150,000 compounds screened, about 540 (0.36%) showed an effect of 50% or more. The list shows a part of the results.

The test has as its system Plasmodium falciparum. Kind of test: Primary screen in NF54 nanoGlo assay, in single point, at 2uM, 72h; a lower Z score goes with more inhibition. The class given is functional, Erythrocyte. The conditions noted are these: timepoint 72 hour.
With `Cc1cc(O)cc(=O)n1CCc1c[nH]c2ccc(F)cc12`, the “% Inhibition” value is recorded as -6% and the Z score was 0.73.
With `CCCC[C@H](NCc1nnc2n1CCCC2)C(=O)Nc1cc(C)on1`, the “% Inhibition” value is -8% and the Z score was found to be 1.4.
For `Cc1cnn(CC(=O)NC[C@H](O)COc2ccc(F)cc2)c1`, in that order: 27% and -3.03.
With `CS(=O)(=O)NC1CCCC1CNC(=O)[C@H](O)c1ccccc1` (some centres undefined), the “% Inhibition” value is listed as -17% and the Z score is 2.26.
As for `O=C1Cc2cc(S(=O)(=O)N3CCC(C(=O)Nc4ccc5c(c4)OCO5)CC3)ccc2N1`, the “% Inhibition” value is reported as -18% and the Z score was found to be 2.76.
Regarding `c1ccc2c(c1)OCC[C@@H]2Nc1ncnc2ccccc12`, the “% Inhibition” value is listed as 6% and the Z score is recorded as -1.12.
For the compound `O=C(Cc1nnc(-c2ccsc2)o1)Nc1ccc(OC(F)(F)F)cc1`, the “% Inhibition” value is 10% and the Z score is reported as -0.99.
For `CCc1cc(-c2cn[nH]c2)nc(N(C)C)n1`, in that order: -14% and 1.78.
For `Cc1cnc(CNC(=O)[C@@H]2CCO[C@H]2c2ccc(Cl)c(F)c2)o1`, in that order: -8% and 0.95.
For the compound `CCn1nc(C(=O)NC2(CC(=O)O)CCC2)c(=O)c2ccccc21`, the “% Inhibition” value is given as -12% and the Z score worked out at 1.92.
For `CC1CN(C(=O)c2ccc(N(C)C)nn2)CC(C)N1` (centres undefined), in that order: 6% and -0.81.
Turning to `CC(C)O[C@H]1CN(c2nccc(C3CCCC3)n2)C[C@@H]1O`, the “% Inhibition” value is on record as -10% and the Z score came out at 1.46.
As to `CCOC[C@@H](O)CN(Cc1c(-c2ccccc2)noc1N(CC)CC)CC1CC1`, the “% Inhibition” value worked out at 0% and the Z score was -0.06.
For `C[C@H]1CN(C(=O)CCCOc2ccccc2)C[C@]1(O)C1CC1`, in that order: 1% and -0.11.
In the case of `CN1C[C@@H]2CC[C@H]1CN(C(=O)c1cccc(-c3ccc4c(c3)OCO4)c1)C2`, the “% Inhibition” value is on record as -4% and the Z score stood at 0.63.
For `C[C@@H]1C[C@H](O)CN(C(=O)NC[C@@H]2C[C@H]2c2ccccc2)C1`, in that order: -3% and 0.38.
As to `CC(C)CN(C)C(=O)[C@H]1CCCN(C2CCN(C3Cc4ccccc4C3)CC2)C1`, the “% Inhibition” value is given as -10% and the Z score is recorded as 0.97.
For `COc1ccc(N2C[C@@]34C=C[C@@H](O3)C(C(=O)NCc3ccccc3)[C@H]4C2=O)cc1` (some centres undefined), in that order: 3% and -0.51.
With `O=C1COC(=O)N1CC1CN(S(=O)(=O)c2ccc3c(c2)CCO3)C1`, the “% Inhibition” value is 4% and the Z score is -0.59.
On to `O=C(Nc1cccc2c1OCCC2)N1CCC[C@H](OC2CCC2)C1`, for which the “% Inhibition” value was determined as 2% and the Z score was -0.29.
In the case of `O=S(=O)(c1cccc2nsnc12)N1CCC2(CC1)CC2(F)F`, the “% Inhibition” value is reported as 20% and the Z score is recorded as -2.56.
For `Cc1ccc2nc(NC(=O)N(C)C[C@H](C)c3nccs3)sc2n1`, the “% Inhibition” value was -20% and the Z score was 2.23.
For the compound `CC(=O)N1CCN(CC(=O)c2cc(C)n(-c3cc(C)on3)c2C)CC1`, the “% Inhibition” value was -4% and the Z score came to 0.5.
As for `Cc1ccc2[nH]c(CCC(=O)N3CCC(C(=O)N4CCCC4)CC3)nc2c1C`, the “% Inhibition” value is given as -1% and the Z score stood at 0.17.
For `COCCCn1ccc(NCc2cccnc2)n1`, in that order: -6% and 0.83.
In the case of `CC(C)N(C)c1ccccc1CNC(=O)NCc1cccnc1`, the “% Inhibition” value is given as 3% and the Z score is on record as -0.45.
For `CN(C)c1ccc(CN2CCC(Oc3ccc(Cl)cc3)(C(=O)O)CC2)cn1`, in that order: -5% and 0.5.
For `COc1cc2c(cc1OC)CN(C1CCN(C(=O)[C@@H](C)Cn3cccn3)CC1)CC2`, in that order: -9% and 1.45.
For `CN(C)c1ncc(CN2C[C@H]3CCC[C@@H](C2)N(C)C3)s1`, in that order: -2% and 0.37.
As for `Cc1ccnn1CCc1ncnn1CC(C)(C)O`, the “% Inhibition” value is recorded as -1% and the Z score was 0.16.
For `O=C(N[C@@H]1CN(C(=O)c2ccco2)C[C@H]1CO)c1ccccc1`, in that order: -12% and 1.98.
Regarding `COc1ccccc1NC(=O)Cn1nc2c(N3CCOCC3)nc3ccccc3n2c1=O`, the “% Inhibition” value is on record as -8% and the Z score worked out at 1.1.
For `CN(C)S(=O)(=O)N(CC#N)CC1CCC(c2ccccc2)CC1` (centres undefined), the “% Inhibition” value was determined as 7% and the Z score is given as -1.1.
For `CCCN1CCN(C(=O)c2ccnn2C)[C@H]2CS(=O)(=O)C[C@H]21`, in that order: -11% and 1.42.
With `COc1ccc(CCC(=O)N2CCC[C@H]2c2nc3ccccc3[nH]2)cc1`, the “% Inhibition” value is on record as 5% and the Z score was -0.95.
With `Cc1ccc(CN2CC(c3nc(CCN(C)C(=O)C4CCOCC4)no3)C2)s1`, the “% Inhibition” value is listed as -2% and the Z score is 0.37.
For `CC(C)C(C#N)NC(=O)[C@H]1Cc2ccccc2O[C@@H]1C(F)(F)F` (some centres undefined), in that order: -10% and 1.38.
For `CCn1cc(CN(C)c2cc(N3CCCC3)nc(N)n2)c(C)n1`, in that order: 6% and -0.92.
For `Cc1ccc(NC(=O)c2ccc(N3CCCN(Cc4ccccc4)C3=O)cc2)cc1`, in that order: 7% and -0.84.
In the case of `Cc1ccc(-c2nc(CNC(=O)Nc3ccc(Cl)cc3)c(C)o2)cc1`, the “% Inhibition” value is given as -8% and the Z score came out at 1.09.
For `CC1CC2CCCCC2N1S(=O)(=O)C1CCOCC1` (centres undefined), in that order: -9% and 1.17.
With `Cc1ccc(C2=NOC3(CCN(C(=O)c4ccncc4)CC3)N2)cc1`, the “% Inhibition” value is -14% and the Z score amounted to 2.21.

For the origin of these results see ChEMBL document CHEMBL4888484, “Replenishing the malaria drug discovery pipeline: Screening and hit evaluation of the MMV Hit Generation Library 1 (HGL1) against asexual blood stage Plasmodium falciparum ,using a nano luciferase reporter read-out” (2022).
